# Source: PMC6919601, “Identification of Plasmodium dipeptidyl aminopeptidase allosteric inhibitors by high throughput screening” (PLoS ONE, 2019)
# Out of some 110,000 compounds screened, about 230 (0.21%) showed an effect of 50% or more. Some of the results follow.
# Biological target: DPAP1 (Plasmodium falciparum, UniProt Q8IIJ9)
# Test: primary screen, percent inhibition; read by cleavage of a fluorogenic dipeptide substrate; higher = more effect of the substance
# Design: species or system P. falciparum D10 trophozoite lysates; single well
# 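Also: 30 min substrate incubation versus DMSO and 10 µM JCP410 controls.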
# Chain of DPAP1 (Q8IIJ9 whole entry, looked up): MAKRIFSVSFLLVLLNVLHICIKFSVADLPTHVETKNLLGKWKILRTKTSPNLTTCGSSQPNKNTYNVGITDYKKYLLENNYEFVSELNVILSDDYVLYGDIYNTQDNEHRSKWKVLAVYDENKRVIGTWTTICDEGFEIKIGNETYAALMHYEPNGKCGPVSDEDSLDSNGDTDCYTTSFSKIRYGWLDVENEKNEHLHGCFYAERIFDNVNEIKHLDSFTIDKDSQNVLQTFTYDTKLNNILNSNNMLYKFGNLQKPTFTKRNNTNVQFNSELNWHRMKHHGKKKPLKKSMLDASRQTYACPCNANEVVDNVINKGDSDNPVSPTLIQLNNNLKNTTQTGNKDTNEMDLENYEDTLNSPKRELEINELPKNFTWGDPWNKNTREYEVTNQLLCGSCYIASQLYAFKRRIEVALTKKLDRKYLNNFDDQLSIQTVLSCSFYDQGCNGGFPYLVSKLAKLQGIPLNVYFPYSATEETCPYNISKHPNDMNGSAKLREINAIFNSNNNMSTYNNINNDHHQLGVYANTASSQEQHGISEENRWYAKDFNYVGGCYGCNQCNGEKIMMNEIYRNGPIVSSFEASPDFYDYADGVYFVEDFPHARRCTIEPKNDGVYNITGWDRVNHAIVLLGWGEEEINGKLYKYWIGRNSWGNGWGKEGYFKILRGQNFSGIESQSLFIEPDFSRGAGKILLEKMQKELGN
row,SMILES,% Inhibition @ 10 uM
1,COc1ccc(Br)cc1-c1nc(C)c(C(C)=O)n1O,-2.9%
2,CCN1C(=O)C(O)(CC(=O)c2ccccn2)c2cc(Br)ccc21 (centres unmarked),-4.15%
3,COc1ccc(C(O)(CC(C)C)C(CN2CCOCC2)c2ccccc2)cc1 (centres unmarked),-0.551%
4,Cc1cccc(NC(=O)c2cc(-c3ccc(C)s3)nc3ccccc23)n1,7%
5,CCOc1cc(C2c3c(oc4cc(C)cc(C)c4c3=O)C(=O)N2CCCO)ccc1O (centres unmarked),7.8%
6,COc1cc2c(cc1OC)CN(Cc1ccccc1C(F)(F)F)CC2,-0.261%
7,Cc1[nH]c2cc(C(=O)O)ccc2c1C,1.25%
8,CCOC(=O)c1c(NC(C)=O)sc2c(OC)c(Br)ccc12,-8.51%
9,Cc1cc(C)c(NC(=O)c2ccc(-c3ccccc3)cc2)c(C)c1,-5.51%
10,CCOc1ccc(C2C(C(=O)NC)=C(C)Nc3nc4ccccc4n32)cc1 (centres unmarked),-2.5%
11,Cc1nn(CC(=O)N2CCC3(CC2)OCCO3)c2ccccc12,-2.88%
12,Cc1ccc2c(CNC3CCC(C)CC3)c(C(=O)O)[nH]c2c1 (centres unmarked),9.05%
13,COc1ccc(S(=O)(=O)NCc2ccco2)cc1-c1nnc2c3ccccc3c(C)nn12,-4.78%
14,c1ccc(N2CCN(c3ccccn3)CC2)nc1,-3.77%
15,Cc1cc(O)n2nc(C)c(-c3ccc(Cl)cc3)c2n1,0.0538%
16,Cc1sc(NC(=O)COc2ccc(Cl)cc2Br)c(C(N)=O)c1C,3.21%
17,COc1ccc(-c2cn3c(C)c(C(=O)N4CCC(C(N)=O)CC4)sc3n2)cc1,4.77%
18,CC1(C)CC(=O)c2c(/C=C/c3ccccc3)n[nH]c2C1,-0.902%
19,COc1ccc2nc3sc(C(=O)NCCN4CCOCC4)cc3cc2c1,3.07%
20,Cc1occc1C(=O)Nc1ccc(N(C)C)cc1,-1.2%
21,CCOC(=O)c1c(C)[nH]c(C)c1S(=O)(=O)N(C)CC(=O)N1CCN(Cc2ccccc2)CC1,-0.695%
22,Cc1cc(C)c2c(NC(=O)CN3CCCCC3)c(C)sc2n1,-5.54%
23,COc1cc(-c2nc3ccccn3c2/N=C/c2sccc2C)ccc1O,15.9%
24,Cc1ccc(-n2ncc(C(=O)O)c2C2CCNCC2)c(C)c1,-1.03%
25,NC(=O)c1c(NC(=O)c2ccncc2)sc2c1CCCCC2,0.618%

row,SMILES,% Inhibition @ 10 uM
1,CCOC(=O)NC(=O)CSc1nc(C)cc(C)c1C#N,-2.14%
2,COc1ccc(NS(=O)(=O)c2ccc(NC(=O)C(F)(F)F)cc2)cc1,-1.88%
3,Oc1nc(Nc2cccc3ccccc23)nc(N2CCOCC2)n1,-0.267%
4,Cn1c(=O)c2c(nc(CN3CCN(C(=O)c4ccco4)CC3)n2CCCc2ccccc2)n(C)c1=O,5.21%
5,CN1C(=O)/C(=C2\SC(Nc3ccc(Br)cc3)=NC2=O)c2ccccc21,-1.36%
6,CC(CNC(=O)C1CCCN(C(=O)c2cc3sccc3n2C)C1)c1ccccc1 (centres unmarked),-1.53%
7,CC1CCCCN1C(=O)c1cc(-c2ccc(Cl)c(Cl)c2)on1 (centres unmarked),-3.12%
8,Cc1ccc(S(=O)(=O)N2CCN(C(c3ccccc3)c3ccccc3)CC2)cc1C,-3.14%
9,COc1ccccc1OCCCSc1nc(-c2ccccc2)nc2cc(=O)[nH]n12,-8.11%
10,CC/C(=N\CCCO)C1=C(O)CC(C)(C)CC1=O,-0.996%
11,O=C(CC1Sc2ccccc2NC1=O)Nc1ccc(Cl)cc1 (centres unmarked),1.94%
12,COc1ccc(C2=C/C(=C/c3ccc(C)c(OC)c3)C(=O)O2)c(OC)c1,1.52%
13,COc1ccccc1CNC(=O)c1cc(Cl)ccc1OC,-5%
14,COC(=O)c1ccc(CN2CCSCC2)cc1,3.15%
15,Cn1cc(Br)c(C(=O)Nc2nc3ccccc3n2CCN2CCOCC2)n1,3.44%
16,COc1ccccc1C1CC(c2ccc(Br)cc2)=NN1c1ccc(Br)cc1 (centres unmarked),0.716%
17,CCc1cc2c(cc3c(=O)n(CC(=O)NCCCN4CC(C)CC(C)C4)ncn32)s1 (centres unmarked),9.22%
18,CC(C)c1ccc(/C=N/n2cnnc2)cc1,13%
19,CC[C@@H](C)[C@H](NC(=O)c1cccc(NC(N)=O)c1)C(=O)N[C@@H](CCc1ccccc1)C(=O)COCc1ccccc1,-7.36%
20,O=C(Cn1ncc2c1-c1ccccc1OC2)N1CC=C(c2ccccc2)CC1,2.6%
21,CC(C)CC(=O)Nc1cccc(NC(=O)CC(C)C)n1,0.907%
22,COc1cccc(-c2cnc(OC(C)(C)C)nc2OC(C)(C)C)c1,2.22%
23,CCC(C(=O)NCCc1ccccc1Cl)n1nc(C)c2sc3ccccc3c2c1=O (centres unmarked),-3.53%
24,Cc1ccc(C(=O)C2CN3CCC2CC3)cc1 (centres unmarked),3.74%
25,COc1ccc(NC(=O)CSC2=N/C(=C/c3cccc(F)c3)C(=O)N2C)cc1,5.83%
